Reference: the supplement of paper PMC7335073
Whole data set: some 4,100 sequences, median “relative CpG methylation activity (normalised to average over all NNNCGNNN flanks)” near 0.94, cut for the highest 2% near 1.9. The list shows a part of the results.

molecular target: DNMT3B catalytic domain (mouse) (UniProt O88509); assay: relative CpG methylation activity (normalised to average over all NNNCGNNN flanks) (relative (1 = mean)); higher = more methylation of the central CpG; details: system: in vitro, murine catalytic domain; CpG state: hemimethylated substrate pool; residues: 558-859
Chain of UniProt O88509 (O88509 558-859): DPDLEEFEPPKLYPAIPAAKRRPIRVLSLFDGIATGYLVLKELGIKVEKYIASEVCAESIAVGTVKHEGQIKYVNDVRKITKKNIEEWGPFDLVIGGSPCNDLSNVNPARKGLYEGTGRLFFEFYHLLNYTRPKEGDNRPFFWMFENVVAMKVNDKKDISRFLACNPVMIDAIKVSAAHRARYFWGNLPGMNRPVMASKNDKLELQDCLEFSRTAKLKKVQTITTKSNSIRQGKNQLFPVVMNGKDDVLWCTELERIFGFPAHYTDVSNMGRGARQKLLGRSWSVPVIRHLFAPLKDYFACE
Experimental: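 Deep enzymology: a pool of dsDNA substrates with a central CpG flanked by 10 random nucleotides on each side was methylated by the murine DNMT3A or DNMT3B catalytic domain (0.8 mM SAM, 37 °C, 60 min). Methylation was then read out by hairpin ligation, bisulfite conversion and NGS. Values are the average methylation of each NNNCGNNN context (±3 flanks; the outer flanks are random and averaged over), normalised to the overall mean, so 1 = average activity.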

Row | Sequence | relative CpG methylation activity
1 | CGGCGGTA | 0.751
2 | TGGCGCTC | 0.412
3 | TTTCGCCA | 1.16
4 | AGACGTTT | 0.684
5 | ACTCGTAA | 0.372
6 | TCCCGGGG | 1.21
7 | CGTCGGTG | 1.12
8 | GCACGTTC | 0.971
9 | GAGCGCCC | 0.746
10 | CGGCGAGG | 1.14
11 | AACCGAGC | 1.38
12 | TAACGCGT | 1.09
13 | TGCCGACT | 0.879
14 | GTGCGATA | 1.36
15 | GTACGGTA | 1.61
16 | ATCCGAAA | 1.31
17 | CCGCGAGG | 0.979
18 | GGGCGAGA | 0.861
19 | TACCGTGG | 0.0942
20 | TCGCGTAC | 0.844
21 | CGTCGTTA | 0.361
22 | GCTCGGAG | 0.646
23 | TTCCGGCA | 1.86
24 | GTTCGAGA | 1.5

Row | Sequence | relative CpG methylation activity
25 | CTTCGCTT | 0.81
26 | TTCCGTCA | 1.04
27 | GCTCGTCT | 0.699
28 | CACCGCAA | 0.27
29 | TGACGAAC | 1.26
30 | CCACGTCC | 1.45
31 | TCTCGTTG | 0.301
32 | TTACGGCT | 1.98
33 | CGACGGCA | 1.82
34 | GAACGACA | 1.15
35 | CCCCGACG | 1.29
36 | ACGCGTGT | 0.432
37 | ATTCGCAA | 0.43
38 | AGCCGGGT | 0.543
39 | GACCGACT | 0.866
40 | TCGCGGCT | 1.49
41 | ATACGAAT | 1.64
42 | ACGCGACC | 0.905
43 | CGTCGAGC | 1.52
44 | ACACGTCG | 1.08
45 | CGACGCGT | 0.874
46 | GACCGAAC | 1.15
47 | GCTCGGTG | 1.4
48 | AACCGAGT | 1.12

Row | Sequence | relative CpG methylation activity
49 | GGGCGTTC | 0.448
50 | ATCCGTCA | 0.948
51 | ACCCGTGG | 0.234
52 | ACACGGAA | 1.12
53 | GACCGCGT | 0.291
54 | GGCCGGAG | 0.286
55 | AGCCGGCT | 0.979
56 | ACCCGACT | 1.18
57 | GTGCGCTG | 0.753
58 | TCACGTTC | 1.01
59 | AGTCGAGT | 1.57
60 | TAACGATT | 1.71
61 | CTGCGCGC | 1.06
62 | CCGCGCAT | 0.647
63 | CAGCGCAT | 0.601
64 | ATACGGTT | 1.38
65 | GACCGGAC | 0.694
66 | CAGCGGAG | 0.402
67 | GACCGACC | 1.13
68 | GTTCGTGA | 0.411
69 | GCGCGAAA | 0.857
70 | GCTCGGAA | 0.89
71 | TCTCGCAG | 0.278
72 | TCTCGCCC | 1.01

Row | Sequence | relative CpG methylation activity
73 | GGTCGCCG | 0.646
74 | CATCGGCG | 1.72
75 | ATGCGGAC | 0.76
76 | TATCGGAC | 1.02
77 | CGTCGGTT | 1.17
78 | GCTCGTGT | 0.224
79 | TGTCGGCG | 1.48
80 | ACCCGGAC | 1.06
81 | ACGCGGGC | 1.12
82 | CCACGGAC | 1.39
83 | AGTCGCTA | 0.567
84 | TGCCGAAC | 0.962
85 | GACCGTAC | 0.724
86 | TGTCGTGA | 0.114
87 | TCACGTTT | 0.884
88 | AACCGTGA | 0.218
89 | TCGCGCAT | 0.385
90 | CGTCGGCC | 1.54
91 | ACCCGTAA | 0.449
92 | GTACGTAC | 1.42
93 | CATCGGCA | 1.83
94 | TTTCGGGC | 1.54
